These results are taken from the supplement of paper PMC4723716.

± gives the uncertainty stated by the source. Over roughly 9,900 compounds, “viability index relative to DMSO control” has its median near 1; the lowest 2% begin near 0.85. The list shows a part of the results.

The subject of the assay is Plasmodium falciparum NF54 stage V gametocytes. The experiment in a line: viability index relative to DMSO control (fraction); higher = less gametocyte killing. As to conditions: 2.5 µM, library set: Broad Institute DOS, incubation time: 72 h. The essentials:
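In 1,536-well plates, 10 µl of serum-free medium holding P. falciparum NF54 stage V gametocytes (0.75% gametocytemia, 1.25% hematocrit) received compound at 2.5 µM for 72 hr at 37°C in low oxygen. After one to two hours with 3 µl of 2.5 µM MitoTracker Red CMXRos containing 0.13% saponin, red particles of 20–70 µm2 were counted in a single field per well. Viability index is reported as the particle count over the plate mean of wells treated with solvent only.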
The compound `Cc1ccccc1S(=O)(=O)N1CCCCN2[C@H](CO)[C@H](c3ccc(C#CCN(C)C)cc3)[C@@H]2C1` showed a viability index of 1.01 ± 0.14. Take `CC(=O)N1Cc2cc(C(=O)NCC(F)(F)F)nc(-c3cccc(-c4cccnc4)c3)c2[C@@H]1CCO`: the viability index amounted to 1.02 ± 0.074.

Compound `O=C(Cc1ccncc1)NCC[C@@H]1CC[C@H](NS(=O)(=O)c2ccccc2Cl)[C@H](CO)O1` showed a viability index of 1.1 ± 0.1. For `COc1cccc(S(=O)(=O)Nc2ccc3c(c2)C(=O)N(C)C[C@@H](OC)[C@@H](C)CN(Cc2ccccc2F)[C@H](C)CO3)c1` the value was 1.016 ± 0.0036. Compound `CCS(=O)(=O)N1C[C@@]2(C1)CN([C@H](CO)c1c2c2ccc(OC)cc2n1C)S(=O)(=O)c1ccccc1` had a viability index of 1.07 ± 0.054. `O=C(Nc1cccc(F)c1)N1CCCCN2[C@H](C1)[C@H](c1ccc(C#Cc3cccnc3)cc1)[C@@H]2CO` displayed a viability index of 0.836 ± 0.036. Under `CCN(C[C@@H]1[C@@H](c2ccccc2)[C@@H](CO)N1C(C)=O)C(=O)NC1CCCC1` stands 1.008 ± 0.0044; under `CCS(=O)(=O)N1C[C@@]2(C1)CN([C@@H](CO)c1c2c2ccc(OC)cc2n1C)C(=O)NC(C)C`, 1.02 ± 0.041. For `C[C@H](CO)N1C[C@H](C)[C@@H](CN(C)C(=O)CCC(F)(F)F)OCc2cn(nn2)CCCC1=O` the value was 1.07 ± 0.014; for `CN(C)C(=O)c1cccc(-c2ccc([C@@H]3[C@@H]4CN(S(=O)(=O)c5cccc(Cl)c5)C[C@H]3N4)cc2)c1`, 1.08 ± 0.093; for `CO[C@H]1CN(C)C(=O)c2cc(NC(=O)c3cnccn3)ccc2OC[C@@H](C)NC[C@@H]1C`, 1.09 ± 0.059. As to `CCC(=O)Nc1ccc2c(c1)C(=O)N(C)C[C@H](OC)[C@H](C)CN(Cc1nccs1)[C@H](C)CO2`, the viability index is 1.08 ± 0.086.

`C[C@@H]1CCCCO[C@@H](CN(C)S(=O)(=O)c2cn(C)cn2)[C@@H](C)CN([C@@H](C)CO)C(=O)c2cc(NC(=O)Nc3cccc4ccccc34)ccc2O1` returned a viability index of 1.04 ± 0.069.

`CCCNC(=O)N1[C@H](CO)[C@@H](c2ccccc2C2=CCCCC2)[C@@H]1C#N`: the viability index was determined as 1.08 ± 0.094. The compound `O=C(C1CCOCC1)N1CC(=O)N2[C@H](C1)[C@H](c1ccc(/C=C/c3ccccc3)cc1)[C@@H]2CO` displayed a viability index of 1.08 ± 0.043. Turning to `O=C(C[C@H]1CC[C@H]2[C@@H](COC[C@H](O)CN2C(=O)Nc2ccc(F)cc2)O1)NC1CCC1`, the viability index stood at 1.07 ± 0.088. `O=C(O)C[C@H]1C=C[C@@H](NC(=O)Nc2cc(F)ccc2F)[C@@H](CO)O1` gave a viability index of 0.919 ± 0.095. Consider `O=C(Nc1ccccc1F)N1CC(=O)N2[C@H](C1)[C@@H](c1ccc(-c3cccnc3)cc1)[C@@H]2CO`, for which the viability index came out at 1.06 ± 0.03. Under `COc1cccc(-c2ccc([C@H]3[C@@H]4CN(Cc5ccccn5)C[C@H]3N4)cc2)c1` stands 1.01 ± 0.0072. For `COc1ccc(CNC(=O)N(C)C[C@H]2OCc3ccccc3-c3c(n(C)c4ccccc34)C(=O)N([C@@H](C)CO)C[C@H]2C)cc1` the value was 0.954 ± 0.053; for `COCC(=O)Nc1ccc2c(c1)[C@H]1C[C@H](CC(=O)N3CCOCC3)O[C@H](CO)[C@H]1O2`, 1.11 ± 0.013; for `Cc1ccccc1-c1ccc([C@H]2[C@@H]3CN(C(=O)c4ccc(F)cc4)C[C@H]2N3)cc1`, 1.01 ± 0.12. On to `COc1ccc(C#Cc2ccc3c(c2)[C@@H]2[C@@H](CCN2S(=O)(=O)c2ccccc2C)[C@@H](CO)N3C)cc1`, for which the viability index was determined as 1.09 ± 0.027. For `C[C@@H]1CN([C@@H](C)CO)S(=O)(=O)c2ccc(-c3cncnc3)cc2O[C@H]1CN(C)C(=O)NC1CCCC1` the value was 1.08 ± 0.13; for `N#C[C@H]1[C@@H](c2ccccc2-c2cccc(F)c2)[C@H](CO)N1C(=O)c1cccnc1`, 1.1 ± 0.092; for `Cc1noc(C)c1NC(=O)Nc1ccc2c(c1)C(=O)N(C)[C@@H]1CC[C@@H](CC(=O)N[C@@H]3CCN(Cc4ccccc4)C3)O[C@@H]1CO2`, 1.14 ± 0.018.

`CO[C@H]1CC[C@@H]2CCOc3c(C#N)cccc3C(=O)N(C)C[C@@H](OC)[C@H](C)C(=O)N(C)C[C@@H]1O2` registered a viability index of 1.03 ± 0.059.

`C[C@H](O)C#Cc1ccc([C@@H]2[C@@H](CO)N3CCCCN(CC4CC4)C[C@H]23)cc1` yielded a viability index of 1.02 ± 0.11. As to `C/C=C/c1ccc([C@H]2[C@H]3CNC[C@@H]2N3S(=O)(=O)c2ccc(Cl)cc2)cc1`, the viability index is 1.12 ± 0.038. With `CC(C)(C)[S@](=O)N1Cc2cc(C(=O)NCC(F)(F)F)nc(-c3cccc(-c4cccc(F)c4)c3)c2[C@@H]1CCO`, the viability index is 1.02 ± 0.025. Under `O=C(C[C@H]1CC[C@H]2[C@@H](COC[C@H](O)CN2S(=O)(=O)c2cccc(Cl)c2)O1)N1CCOCC1` stands 1.03 ± 0.067.

Consider `CN(C)C(=O)c1ccc(-c2ccccc2[C@H]2[C@@H](CO)N(C(=O)C3CC3)[C@H]2C#N)cc1`, for which the viability index is 0.998 ± 0.065. Under `CO[C@@H]1CN(C)C(=O)c2cc(NC(C)=O)ccc2OC[C@@H](C)N(S(C)(=O)=O)C[C@@H]1C` stands 1.03 ± 0.047; under `O=C(C[C@H]1CC[C@@H](NC(=O)c2ccc3c(c2)OCO3)[C@H](CO)O1)NCc1ccc(Oc2ccccc2)cc1`, 1.14 ± 0.039. Under `COc1ccc(NC(=O)N(C)C[C@H]2OCCCC[C@H](C)Oc3ccc(NC(=O)c4ccncc4)cc3C(=O)N([C@@H](C)CO)C[C@H]2C)cc1` stands 1.07 ± 0.066; under `COc1ccc2c3c([C@@H](CO)N(C[C@]33CCN(C)CC3)C(=O)NC3CCCCC3)n(C)c2c1`, 0.928 ± 0.12. Compound `CO[C@@H]1CN(C)C(=O)c2cc(NS(=O)(=O)c3cn(C)cn3)ccc2OC[C@@H](C)N(Cc2cccc(C(F)(F)F)c2)C[C@H]1C` returned a viability index of 1.14 ± 0.047. Compound `COc1ccc(S(=O)(=O)N(C)C[C@@H]2Oc3ncccc3C(=O)N([C@H](C)CO)C[C@@H]2C)cc1` displayed a viability index of 0.964 ± 0.055. For `COc1ccc(NC(=O)N(C)C[C@@H]2Oc3ccc(NC(=O)CCN4CCOCC4)cc3C(=O)N([C@@H](C)CO)C[C@@H]2C)cc1` the value was 0.969 ± 0.17; for `O=C(C[C@@H]1CC[C@H]2[C@@H](COC[C@@H](O)CN2C(=O)c2ccccc2F)O1)NCc1ccc(Cl)c(Cl)c1`, 1.09 ± 0.036; for `C[C@@H]1CN([C@@H](C)CO)C(=O)c2cccc(NC(=O)NC3CCCCC3)c2O[C@@H]1CN(C)Cc1ccc(C(F)(F)F)cc1`, 0.813 ± 0.08. For `C[C@@H]1CN([C@H](C)CO)C(=O)c2ccccc2-c2ccccc2CO[C@H]1CN(C)C(=O)CCC(F)(F)F` the value was 0.966 ± 0.14; for `Cc1noc(C)c1S(=O)(=O)N(C)C[C@@H]1OCCCC[C@@H](C)Oc2ccc(N(C)C)cc2C(=O)N([C@@H](C)CO)C[C@@H]1C`, 1.08 ± 0.068; for `CCCC(=O)N1CC[C@@]2(CC1)CN[C@H](CO)c1[nH]c3cc(OC)ccc3c21`, 0.974 ± 0.08.

`COc1ccc2c3c([nH]c2c1)[C@@H](CO)N(C[C@]31CCN(C)CC1)S(=O)(=O)c1ccccc1` displayed a viability index of 1.04 ± 0.032. For `COc1ccccc1S(=O)(=O)N(C)C[C@H]1OCc2ccccc2-c2ccccc2C(=O)N([C@@H](C)CO)C[C@H]1C` the value was 1.07 ± 0.032; for `O=C(CN1CCOCC1)N1CC(=O)N2[C@H](CO)[C@@H](c3ccc(-c4cccc(F)c4)cc3)[C@H]2C1`, 1.03 ± 0.024; for `Cc1ccc(-c2ccccc2[C@H]2[C@@H](C#N)N(c3ncc(-c4ccccc4)s3)[C@@H]2CO)cc1`, 1.1 ± 0.075. For `O=C(CN1CCOCC1)N1CC[C@@H]2[C@H](CO)Nc3ccc(-c4ccccc4F)cc3[C@@H]21`, the viability index amounted to 1.04 ± 0.051. Turning to `COc1ccc(NC(=O)N[C@H]2CC[C@H](CCNC(=O)CN3CCOCC3)O[C@H]2CO)cc1`, the viability index stood at 1.02 ± 0.053. For `COc1ccc2c3c([nH]c2c1)[C@@H](CO)N(C)C[C@]31CCN(CC1)C(=O)c1ccccc1F` the value was 0.983 ± 0.086; for `C[C@@H]1CN([C@H](C)CO)S(=O)(=O)c2ccc(-c3ccc(F)cc3)cc2O[C@@H]1CN(C)Cc1ccccc1C(=O)O`, 0.96 ± 0.059; for `N#C[C@H]1N[C@H](CO)[C@@H]1c1ccc(C#Cc2ccccc2F)cc1`, 1.07 ± 0.076. For `CNC(=O)C[C@H]1CC[C@H]2[C@@H](COc3ccc(NS(=O)(=O)c4ccc(F)cc4)cc3C(=O)N2C)O1` the value was 0.914 ± 0.11; for `CO[C@H]1CN(C)C(=O)c2cc(NC(=O)c3cccc(F)c3)ccc2OC[C@@H](C)N(C)C[C@H]1C`, 0.992 ± 0.039. For `CNC[C@H]1OCCCC[C@H](C)Oc2ccc(N)cc2C(=O)N([C@@H](C)CO)C[C@@H]1C` the value was 1.07 ± 0.059; for `COc1ccccc1NC(=O)N1C[C@@H]2[C@H](c3ccccc31)[C@@H](CO)N2CC1CCOCC1`, 1.02 ± 0.036.

Compound `C[C@@H]1CN([C@H](C)CO)C(=O)c2ccccc2-c2ccccc2CO[C@H]1CN(C)C(=O)[C@H](Cc1ccccc1)N(C)C` returned a viability index of 0.974 ± 0.066. For `COc1ccc(S(=O)(=O)Nc2ccc3c(c2)C(=O)N([C@H](C)CO)C[C@@H](C)[C@@H](CN(C)Cc2ccc(C(F)(F)F)cc2)OCCCC[C@@H](C)O3)cc1` the value was 1.01 ± 0.011; for `Cc1cccc(S(=O)(=O)N2CC[C@@H]3[C@H]2c2cc(Br)ccc2N(C)[C@H]3CO)c1`, 1.06 ± 0.017; for `C[C@H](NC(=O)C[C@H]1C=C[C@@H](NS(=O)(=O)c2cccc(F)c2)[C@@H](CO)O1)c1ccccc1`, 1 ± 0.088. For `CC(=O)N1[C@H](CO)[C@H](c2ccccc2)C12CN(S(=O)(=O)c1ccccc1)C2` the value was 1.11 ± 0.075. For `COc1ccc2c3c([C@@H](CO)N(CC4CC4)C[C@]33CN(C3)S(=O)(=O)c3cn(C)cn3)n(C)c2c1` the value was 0.91 ± 0.043. On to `COCC(=O)Nc1ccc2c(c1)C(=O)N(C)[C@H]1CC[C@@H](CC(=O)NCCCN(C)C)O[C@H]1CO2`, for which the viability index was 0.985 ± 0.028. Under `COc1cccc(-c2ccc3c(c2)[C@H]2[C@H](CCN2C(=O)Cc2ccncc2)[C@H](CO)N3C)c1` stands 1 ± 0.049; under `CCC(=O)N(CC(C)C)C[C@H]1[C@H](c2ccccc2)[C@@H](CO)N1C(=O)C1CCC1`, 1.02 ± 0.061; under `C[C@@H]1CN([C@@H](C)CO)C(=O)Cc2cc(NC(=O)Cn3cnnn3)ccc2O[C@H]1CN(C)S(=O)(=O)c1ccc(Cl)cc1`, 1.06 ± 0.061. Under `COc1cccc(S(=O)(=O)N2CC[C@@H]3[C@H](CO)Nc4ccc(C5=CCCCC5)cc4[C@@H]32)c1` stands 0.918 ± 0.075; under `Cc1ccc(S(=O)(=O)Nc2ccc3c(c2)C(=O)N([C@@H](C)CO)C[C@H](C)[C@H](CN(C)Cc2ccc(C(F)(F)F)cc2)O3)cc1`, 0.978 ± 0.037.

`CC(=O)N1[C@H](CNC(=O)CN(C)C)[C@@H](c2ccc(C3=CCCCC3)cc2)[C@@H]1CO`: the viability index is 1.05 ± 0.021.
